According to the supplement of paper PMC4967469:
A lower IC50 marks a more sensitive line; fits outside the tested doses are given as limits. AUC is the area under the same curve over the 256-fold range up to the top dose, as a fraction; values near 1 show little effect. Drugs with an entry number were screened twice under separate entries, and the two screens often disagree.

Compound: CS(=O)(=O)N1CCN(Cc2cc3nc(-c4cccc5[nH]ncc45)nc(N4CCOCC4)c3s2)CC1 [GDC0941]
Experiment: Viability of human cancer cell lines after 72 h of drug (GDSC screen)
Conditions: screen: GDSC drug entry 1058
Procedure: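 Human cancer cell lines in 384-well plates, medium with 10% serum, drug for 72 h over a 256-fold dose range (nine 2-fold or five 4-fold steps up to the top dose). Adherent lines were fixed and stained with the nucleic acid dye Syto60, suspension lines read with resazurin; signal relative to control wells, capped at 0 and 100%. One two-parameter sigmoid per drug and line, fitted in a mixed model over all curves with the slope shared within a line.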

| Cell Line | AUC | IC50 |
| --- | --- | --- |
| 5637 (bladder, adherent, top dose 4 µM) | 0.835 | 2.28 µM |
| OVCAR-5 (ovary, adherent, top dose 4 µM) | 0.681 | 0.899 µM |
| DG-75 (Burkitt lymphoma, suspension, top dose 4 µM) | 0.746 | 1.28 µM |
| SW948 (large intestine, adherent, top dose 4 µM) | 0.981 | > 4 µM |
| SUP-HD1 (Hodgkin lymphoma, suspension, top dose 4 µM) | 0.788 | 1.66 µM |
| HuH-7 (liver, adherent, top dose 4 µM) | 0.718 | 1.03 µM |
| K2 (melanoma, adherent, top dose 4 µM) | 0.948 | > 4 µM |
| WSU-NHL (lymphoid neoplasm, suspension, top dose 4 µM) | 0.263 | 0.0583 µM |
| A388 (skin, adherent, top dose 4 µM) | 0.633 | 0.616 µM |
| HCC1569 (breast, adherent, top dose 4 µM) | 0.895 | > 4 µM |
| BV-173 (chronic myeloid leukaemia, suspension, top dose 4 µM) | 0.822 | 1.98 µM |
| NUGC-3 (stomach, adherent, top dose 2 µM) | 0.906 | > 2 µM |
| NCI-H1838 (lung adenocarcinoma, adherent, top dose 2 µM) | 0.984 | > 2 µM |
| NCI-H1623 (lung adenocarcinoma, adherent, top dose 4 µM) | 0.542 | 0.335 µM |
| KGN (ovary, adherent, top dose 4 µM) | 0.951 | > 4 µM |
| ME-1 (acute myeloid leukaemia, suspension, top dose 4 µM) | 0.986 | > 4 µM |
| NCI-H209 (small cell lung carcinoma, suspension, top dose 4 µM) | 0.916 | > 4 µM |
| P30-OHK (lymphoblastic leukaemia, suspension, top dose 4 µM) | 0.401 | 0.141 µM |
| MHH-PREB-1 (B-cell leukaemia, suspension, top dose 4 µM) | 0.455 | 0.191 µM |
| BICR22 (head and neck, adherent, top dose 4 µM) | 0.675 | 0.831 µM |
| SNU-C2B (large intestine, adherent, top dose 4 µM) | 0.887 | > 4 µM |

| Cell Line | AUC | IC50 |
| --- | --- | --- |
| SK-MEL-28 (melanoma, adherent, top dose 2 µM) | 0.821 | 1.13 µM |
| NCI-H810 (large cell lung carcinoma, adherent, top dose 4 µM) | 0.988 | > 4 µM |
| PE/CA-PJ15 (head and neck, adherent, top dose 4 µM) | 0.893 | > 4 µM |
| JHOS-4 (ovary, adherent, top dose 4 µM) | 0.899 | > 4 µM |
| SW1417 (large intestine, adherent, top dose 4 µM) | 0.962 | > 4 µM |
| GR-ST (lymphoblastic leukaemia, suspension, top dose 4 µM) | 0.853 | > 4 µM |
| DJM-1 (skin, adherent, top dose 4 µM) | 0.91 | > 4 µM |
| EW-1 (Ewing sarcoma, semi-adherent, top dose 4 µM) | 0.889 | 3.91 µM |
| D-263MG (glioma, adherent, top dose 4 µM) | 0.615 | 0.555 µM |
| CHP-134 (neuroblastoma, suspension, top dose 4 µM) | 0.87 | > 4 µM |
| SNU-387 (liver, adherent, top dose 4 µM) | 0.682 | 0.874 µM |
| SW1271 (small cell lung carcinoma, adherent, top dose 4 µM) | 0.892 | > 4 µM |
| HCC1500 (breast, adherent, top dose 4 µM) | 0.95 | > 4 µM |
| 786-0 (kidney, adherent, top dose 4 µM) | 0.845 | 2.54 µM |
| Hey (ovary, adherent, top dose 4 µM) | 0.741 | 1.16 µM |
| LC4-1 (lymphoblastic leukaemia, suspension, top dose 4 µM) | 0.971 | > 4 µM |
| HCC1395 (breast, adherent, top dose 4 µM) | 0.862 | > 4 µM |
| CAL-120 (breast, adherent, top dose 4 µM) | 0.918 | > 4 µM |
| Capan-2 (pancreas, adherent, top dose 4 µM) | 0.949 | > 4 µM |
| D-423MG (glioma, adherent, top dose 4 µM) | 0.711 | 1.14 µM |
